# According to PubChem BioAssay AID1159614 (National Center for Advancing Translational Sciences (NCATS), 2016):
# In all, about 45,000 compounds went through this assay and about 65 (0.1%) were called active. Calls follow the shape of the dose curve; as a rule, active = well fitted activation curve with a large enough effect; inconclusive = small, poorly fitted or top-dose-only effect; inactive = no such curve, though single readings can be large or run the other way. Some of the results follow.
# Target: Galactocerebrosidase (Homo sapiens) (UniProt P54803)
# UniProt P54803, sequence (P54803 whole entry, looked up): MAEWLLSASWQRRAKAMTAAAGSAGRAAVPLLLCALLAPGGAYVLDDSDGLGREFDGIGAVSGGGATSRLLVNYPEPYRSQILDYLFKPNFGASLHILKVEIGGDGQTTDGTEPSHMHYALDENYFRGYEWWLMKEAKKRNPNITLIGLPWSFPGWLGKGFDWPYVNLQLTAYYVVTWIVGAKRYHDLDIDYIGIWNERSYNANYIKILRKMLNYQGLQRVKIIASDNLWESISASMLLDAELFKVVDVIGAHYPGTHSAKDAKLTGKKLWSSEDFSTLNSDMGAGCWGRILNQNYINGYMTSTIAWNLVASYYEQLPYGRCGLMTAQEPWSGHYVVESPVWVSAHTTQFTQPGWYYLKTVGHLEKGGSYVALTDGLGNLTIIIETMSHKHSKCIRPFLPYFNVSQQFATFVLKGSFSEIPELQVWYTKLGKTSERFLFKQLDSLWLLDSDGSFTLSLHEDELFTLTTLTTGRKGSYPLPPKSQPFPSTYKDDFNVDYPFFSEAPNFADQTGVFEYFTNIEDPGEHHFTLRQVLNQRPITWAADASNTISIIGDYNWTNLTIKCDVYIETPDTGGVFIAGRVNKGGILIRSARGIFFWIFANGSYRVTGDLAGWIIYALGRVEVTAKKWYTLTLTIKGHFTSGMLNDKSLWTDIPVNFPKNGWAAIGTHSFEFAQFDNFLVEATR
# Test: A Novel Cell-Based Assay to Identify Small Molecules for B -Galactocerebrosidase; also: 0% is about no effect; nearly all actives have a fitted effect of over 65% in size
# Conditions: 145M-Twi-hGALC-G270D cells (Twitcher mouse brain line with human GALC G270D), HMU-beta-Gal fluorescence, 48 h; series mostly up to 57.5 µM; activation: at the top concentration
# How it was run: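 Brain-derived Twitcher mouse 145M-Twi cells stably expressing human GALC-G270D or wild-type GALC, treated live, then residual GALC activity read by fluorescence of HMU-b-Gal substrate (0.1 mM final) in citrate-phosphate buffer pH 5.2 with sodium taurocholate. Signal increase indicates enhancement.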
row,Structure (SMILES),activation
1,COc1cc2c(cc1OC)C(COc1ccc3c(C)cc(=O)oc3c1)N(C(=O)Cc1ccc(F)cc1)CC2 (configuration not stated),inactive: -11.4%
2,Cc1cc(C)cc(-n2ccn(CC(=O)NCCc3ccccc3)c(=O)c2=O)c1,inactive: -7.23%
3,COc1ccc(NC(=O)CC2Oc3ccc(C)cc3NC2=O)cc1Cl (configuration not stated),inactive: -3.14%
4,COc1cccc(C(=O)N(Cc2cccc(F)c2)C2CCS(=O)(=O)C2)c1 (configuration not stated),inactive: -15.2%
5,COc1ccc(Cn2ccnc2SCC(=O)Nc2ccc3c(c2)OCCO3)cc1,inactive: -8.56%
6,Cc1ccc2c(c1)N(CC(=O)Nc1ccccc1C(F)(F)F)C(=O)c1cccnc1O2,inactive: -0.345%
7,CCOC(=O)c1c(NC(C)=O)c2c3c(sc2n1Cc1c(C)cc(C)cc1C)CCCC3,inactive: -13.6%
8,CCOc1ccc(N(CC(=O)NCc2ccc(OC)cc2)S(=O)(=O)c2c(C)[nH]c(=O)[nH]c2=O)cc1,inactive: -15.5%
9,CCOC(=O)c1cc2c(=O)n3ccccc3nc2n(Cc2ccco2)c1=NC(=O)c1ccc(C(C)(C)C)cc1,inactive: -10.3%
10,COc1cccc(OC)c1C(=O)Nc1ccc(-c2nc3ncccc3o2)cc1,inactive: -16.9%
11,O=C(Nc1cccc(F)c1)c1ccc2oc(=O)n(Cc3ccccc3)c2c1,inactive: 1.17%
12,Cc1c(Cl)cccc1NC(=O)c1oc2ccc(S(=O)(=O)N3CCCCCC3)cc2c1C,inactive: -22%
13,CCOC(=O)c1cccnc1SCC(=O)N(CC)c1cccc(C)c1,inactive: -12.7%
14,CCOC(=O)c1ccc(NC(=O)c2c(NCc3sccc3C)sc3c2CCC(C)C3)cc1 (configuration not stated),inactive: -12.1%
15,NC(=O)c1nc(Nc2ccccc2)sc1NC(=O)c1c(F)cccc1F,inactive: -19%
16,CCOCCCNC(=O)c1c[nH]c2ccc(S(=O)(=O)N(C)c3ccc(Cl)cc3F)cc2c1=O,inactive: -20%
17,CN1CCN(C(CNC(=O)C(=O)Nc2ccc(Cl)cc2)c2cccnc2)CC1 (configuration not stated),inactive: -11.3%
18,Cc1ccc(C)c(N2CCN(C(=O)CCc3nnc4n(C)c(=O)c5ccccc5n34)CC2)c1,inactive: -12%
19,CC(C)Cn1nc(NC(=O)c2cccc(Cl)c2)c2cc3ccccc3nc21,inactive: -11%
20,CCc1ccccc1NC(=O)c1oc(=O)c2ccccc2c1-c1ccccc1,inactive: -13%
21,CC(C)(C)c1ccc(OCC(=O)Nc2ccc(C(=O)OC3CCCCC3)cc2)cc1,inactive: -11.4%

row,Structure (SMILES),activation
1,COc1ccc(F)cc1S(=O)(=O)NCC(c1ccco1)S(=O)(=O)c1cccs1 (configuration not stated),inactive: -17.8%
2,Cc1ccc2nc3c(cc(C#N)c(=O)n3-c3nnc(SCc4ccc(F)cc4)s3)c(=O)n2c1,inactive: 8.22%
3,Cc1cccc2c(=O)cc(CSc3ccccc3NC(=O)C(C)C)[nH]c12,inactive: -7.67%
4,COc1cccc(NC(=O)CSc2nc(=O)n(Cc3cccnc3)c3c2CCC3)c1,inactive: -8.62%
5,CCCCOc1cccc(C(=O)Nc2sc3c(c2C(=O)OCC)CCCC3)c1,inactive: 15.8%
6,CCCCCN(CCCCC)C(=O)C(CCC(=O)O)NC(=O)c1ccc(Cl)c(Cl)c1 (configuration not stated),inactive: -10.8%
7,CCCn1c2ccccc2c2cnn(CC(=O)NCC3CCN(Cc4ccc(C)cc4)CC3)c(=O)c21,inactive: 9.8%
8,CCOc1ccc(-n2c(SCc3ccccc3)nc3c([nH]c4ccccc43)c2=O)cc1,inactive: -1.9%
9,CCOc1ccccc1NC(=O)Cn1c(=O)n(CC(=O)NCc2ccccc2Cl)c(=O)c2sccc21,inactive: -4.97%
10,COc1ccc(OCC(=O)Nc2ccc(-c3nc4cc(Cl)ccc4o3)cc2)cc1,inactive: -16.5%
11,COc1ccc(CCNC(=O)CCCCn2c(=O)c3ccccc3n(Cc3cc(C)ccc3C)c2=O)cc1OC,inactive: -0.24%
12,CCOc1ccc(CNC(=O)c2ccc3c(c2)c(C)c(C)n3C)cc1,inactive: -3.91%
13,CCCN(CCC)C(=O)Cn1c(=O)n(-c2ccc(OC)cc2OC)c(=O)c2c3c(sc21)CCC3,inactive: -7.15%
14,Cc1ccc(Sc2ccc(N3CCCC(C(=O)Nc4ccc(F)c(Cl)c4)C3)nn2)cc1 (configuration not stated),inactive: -7.66%
15,COc1cccc(CNC(=O)N2CCc3c(sc4c3CCCC4)C2c2ccc(F)cc2)c1 (configuration not stated),inactive: -6.65%
16,Cc1nc2ncnn2c(C)c1CCC(=O)N1CCN(c2ccc(F)cc2)CC1,inactive: -11.9%
17,Cc1cc(Nc2cccc(C(F)(F)F)c2)nc2ccc(NC(=O)Cc3ccc(Cl)cc3)cc12,inactive: -10.5%
18,Cc1cccc(C(=O)NCCc2nc3ccccc3n2Cc2ccccc2Cl)c1,inactive: -9.71%
19,Cc1ccc(NC(=O)Nc2nnc(SCC(=O)N3CCCCC3)s2)cc1,inactive: -23.5%
20,CC(C)c1ccc2c(c1)NC(c1ccc(F)cc1)=NC(c1cccs1)=N2,inactive: -14.7%
21,Fc1ccc(-c2noc3ncnc(NCCc4ccc(Cl)cc4)c23)cc1,inactive: -31.1%

row,Structure (SMILES),activation
1,COc1cccc(N2CC(NC(=O)c3cc4ccccc4o3)CC2=O)c1 (configuration not stated),inactive: -11.4%
2,COc1ccc(Nc2cc(C)c3cc(NC(=O)c4ccccc4Cl)ccc3n2)cc1,inactive: -8.29%
3,CC(C)c1noc(-c2ccccc2OCC(=O)Nc2ccc([N+](=O)[O-])cc2)n1,inactive: 4.09%
4,Cc1cc(=O)n(Cc2cccc(Cl)c2)c2c1c(C)nn2C,inactive: -19.7%
5,CCn1c2c(c(=O)n3ncc(C(=O)N4CCN(c5ccccc5)CC4)c13)CN(Cc1ccc(OC)cc1)CC2,inactive: -22.7%
6,COc1ccc(OC)c(C2C(C(=O)Nc3ccc(C)cc3C)=C(C)Nc3c(C(=O)Nc4ccc(F)cc4)cnn32)c1 (configuration not stated),inactive: -1.81%
7,CCOC(=O)CCc1c(C)nc2c(-c3ccccc3)c(C)[nH]n2c1=O,inactive: -4.48%
8,CCOc1ccccc1CNC(=O)CSc1n[nH]c(-c2ccccc2)n1,inactive: -5.9%
9,O=C(CSc1nnc(-c2ccncc2)n1-c1ccccc1)Nc1ccc(F)cc1,inactive: -2.72%
10,COc1ccc(Cl)cc1NC(=O)CSc1nc(=O)n(Cc2ccco2)c2c1CCC2,inactive: -7.29%
11,COc1ccc(OC)c(-c2noc(CSc3nnc(-c4ccccc4)n3-c3ccccc3)n2)c1,inactive: -8.42%
12,Cc1ccc(-n2ncc3c(Nc4ccc(Oc5ccccc5)cc4)ncnc32)c(C)c1,inactive: -18.2%
13,COc1ccc(N2CCN(S(=O)(=O)c3ccc(C4CCCCC4)cc3)CC2)cc1,inactive: -4.18%
14,Cc1ccc(OCC(=O)Nc2nnc(S(=O)(=O)N3CCc4ccccc43)s2)cc1,inactive: -12.9%
15,CCOC(=O)c1ccccc1NC(=O)c1cn(CC(C)C)c(=O)c2cc(OC)c(OC)cc12,inactive: -7.29%
16,CC(C)NCC(O)c1ccc(O)c(O)c1 (configuration not stated),inactive: -17.2%
17,Nc1ccc(O)cc1,inactive: -15.5%
18,COc1ccc(CNC(=O)Cn2c(=O)c3cccn3c3cccnc32)cc1,inactive: -11%
19,Cc1cccn2c(=O)c(C(=O)N3CCN(c4ccccc4F)CC3)cnc12,inactive: -3.08%
20,COc1ccc(C(=O)Nc2nnc(SCc3cc(=O)c4cc(C)ccc4[nH]3)s2)cc1OC,inactive: -8.38%
